Data as given in PubChem BioAssay AID1963576 (National Center for Advancing Translational Sciences (NCATS), 2024).
Screen size: about 46,000 compounds; about 60 (0.1%) were called active. Roughly 3% stayed inconclusive and do not appear here. The call rests on the fitted dose curve; in most records, active means well fitted inhibition curve with a large enough effect; inconclusive means small, poorly fitted or top-dose-only effect; inactive means no such curve, though single readings can be large or run the other way. This is one part of the list.

Assay: Primary qHTS assay for Inhibitors of ovarian cancer metastasis using an organotypic tumor microenvironment (TME) model. Further: nearly all actives have a fitted effect of over 65% in size.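 On activity change, negative = inhibition: plate controls were DMSO wells for no effect and tomatine positive control wells for full effect.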
Details: SKOV3ip1-GFP adhesion/invasion on 3D omental model, fluorescence; series mostly up to 45.8 µM; activity change, negative = inhibition: at the top concentration
In short: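 A 3D layer of primary human omental fibroblasts, mesothelial cells, fibronectin and collagen I, grown 48 hr, received SKOV3ip1-GFP cells in serum-free medium plus compounds at 0.36-46 umol/L. After 2 hr RT and 16 hr 37 C, fixed adherent GFP cells were counted; normalized to DMSO and tomatine.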

| SMILES | outcome | activity change, negative = inhibition |
| --- | --- | --- |
| COc1ccc(NC(=O)CC2C(=O)N(c3cccc(OC)c3)C(=O)N2CCc2cccs2)cc1 (stereo not drawn) | inactive | – |
| Cc1ccc(NC(=O)Cn2c(=O)n(Cc3nc(-c4ccccc4)no3)c(=O)c3cc4c(cc32)OCO4)cc1F | – | inactive: -4.67% |
| O=C(COc1ccccc1F)Nc1ccc2nc(SCCOc3ccccc3)sc2c1 | inactive | – |
| CCc1ccc(OC(C)C(=O)N2CCC(c3nc4ccccc4o3)CC2)cc1 (stereo not drawn) | – | inactive: -4.69% |
| Cc1ccc(C(=O)Nc2ccc3c(c2)n(C)c(=O)c(=O)n3C)cc1 | – | inactive: 2.68% |
| COc1ccc(CNS(=O)(=O)c2ccc(N3CCCCS3(=O)=O)cc2)cc1 | – | inactive: -20.1% |
| CC1CCN(Cc2c(O)ccc3c(=O)c(Oc4ccccc4Cl)c(C(F)(F)F)oc23)CC1 | – | inactive: -5.01% |
| Cc1ccc(NC(=O)Cn2nc(C(=O)Nc3ccc(C)cc3)ccc2=O)cc1 | – | inactive: -2.78% |
| CC(=O)Nc1ccc(NC(=O)CCc2nc3cccnc3n2Cc2cccs2)cc1 | inactive | – |
| COc1cc(NC(=O)CSc2nnc(C)n3c2cc2oc(C)cc23)cc(OC)c1 | – | inactive: -11.4% |
| COc1ccc(NC(c2nnc(-c3ccccc3)o2)c2ccccc2F)cc1Cl (stereo not drawn) | inactive | – |
| Cc1ccccc1-c1noc(-c2ccc(N3CCCCC3)c([N+](=O)[O-])c2)n1 | – | inactive: -1.07% |
| O=C(NCc1ccc(Cl)cc1)c1cnc2sc(N3CCOCC3)nn2c1=O | – | inactive: 14% |
| Cc1c2cnn(CC(=O)NCc3ccc(F)cc3)c(=O)c2c(C)n1Cc1cccc(Cl)c1 | – | inactive: -2.88% |
| CCOCCCN(Cc1ccco1)S(=O)(=O)c1cc2c(cc1Cl)NC(=O)CO2 | – | inactive: -6.37% |
| O=C(Nc1nnc(N2CCCCCC2)s1)Nc1cc(F)ccc1F | – | inactive: -3.44% |
| CCCOc1ccc(C(=O)Nc2ccc3oc(-c4ccncc4)nc3c2)cc1 | – | inactive: 3.76% |
| CCOc1ccc(CCNC(=O)C2CCN(C(=O)N3CC(CC)Oc4ccccc43)CC2)cc1 (stereo not drawn) | inactive | – |
| CCCCOC(=O)c1c(N)n(-c2ccc(OC)cc2OC)c2nc3ccccc3nc12 | inactive | – |
| CCC(Sc1nnc2c(n1)[nH]c1ccccc12)C(=O)Nc1nnc(C(C)C)s1 (stereo not drawn) | – | inactive: -2.54% |
| COc1cccc(CNC(=O)CCS(=O)(=O)c2ccc3c(c2)oc(=O)n3C)c1 | – | inactive: -13.6% |
| COCCCNC(=O)c1c(NC(=O)Cc2coc3c(C)c(C)ccc23)sc2c1CCCC2 | – | inactive: -13.8% |
| COCCN(Cc1cccs1)S(=O)(=O)c1cc(-c2cc(C)no2)ccc1C | – | inactive: -27.4% |
| Cn1nnc2c(N3CCN(c4cccc(Cl)c4)CC3)ncnc21 | – | inactive: -2.53% |

| SMILES | outcome | activity change, negative = inhibition |
| --- | --- | --- |
| CC(C)N(C(=O)Cn1cc(SCC(=O)Nc2ccccc2F)c2ccccc21)C(C)C | – | inactive: 3.54% |
| Cc1cccc(-n2ncc(C(=O)N3CCOCC3)c2C2CCN(C(=O)OC(C)(C)C)CC2)c1 | – | inactive: 18.9% |
| O=C(NC1CC(=O)N(c2cccc(F)c2)C1)c1cccs1 (stereo not drawn) | inactive | – |
| CCOc1ccc(C(=O)NCc2ccc3c(c2)CCN3C(=O)c2ccc(Cl)cc2)cc1 | – | inactive: -2.46% |
| Cc1ccc(C(=O)c2cc(O)c(O)c([N+](=O)[O-])c2)cc1 | – | inactive: 26.1% |
| Cc1c(CCC(=O)NCCc2ccccc2)c(=O)oc2c(C)c(O)ccc12 | – | inactive: 7.43% |
| Cc1ccc(C(C)C)c(OCCSc2nc(-c3ccccc3F)nc3cc(=O)[nH]n23)c1 | inactive | – |
| CCc1ccc(NC(=O)c2ccc(CN3CC(=O)N4CCCCC4C3=O)cc2)cc1 (stereo not drawn) | – | inactive: 0.87% |
| Cc1c(Cl)cccc1NC(=O)N1CCN(C(=O)c2nsc3ccccc23)CC1 | – | inactive: -0.642% |
| Cc1ccccc1Nc1cc(C(=O)NCCCN2CCN(c3cccc(Cl)c3)CC2)c2ccccc2n1 | – | inactive: -16.8% |
| CCCN(C(=O)c1cc2c(=O)oc3ccccc3c2s1)c1ccc(CC)cc1 | – | inactive: 3.53% |
| CC(C)C(=O)Nc1ccc2nc(SCC(=O)N3CCCC3)sc2c1 | – | inactive: 6.06% |
| CCc1ccc(OCC(=O)NC(Cc2c[nH]c3ccccc23)C(=O)O)cc1 (stereo not drawn) | – | inactive: 4.14% |
| COc1cccc(OCc2nc3ccccc3n2CCOc2ccc(C)cc2)c1 | – | inactive: 6.43% |
| Cc1ccc(Cn2c(C(=O)O)c(CNCc3ccc(OC(C)C)cc3)c3ccc(C)cc32)cc1 | – | inactive: -3.52% |
| COc1cc(OC)c(NC(=O)C2CCN(S(=O)(=O)c3c(C)noc3/C=C/c3c(C)cc(C)cc3C)CC2)cc1Cl | – | inactive: 9.62% |
| COc1ccc(OC)c(NC(=O)CSc2ccc(-c3cccs3)nn2)c1 | – | inactive: 0.799% |
| COc1cccc(CNC(=O)c2cc(C)nc3c2c(C)nn3-c2ccc(C)cc2)c1 | – | inactive: 21.4% |
| COc1cccc(-n2c(=O)c3c(C)c(C)sc3n(CC(=O)NCCc3ccc(OC)c(OC)c3)c2=O)c1 | – | inactive: 5.04% |
| CCOC(=O)c1c(NC(=O)C(C)Sc2cn(CCNC(=O)c3c(F)cccc3F)c3ccccc23)sc2c1CCC2 (stereo not drawn) | inactive | – |
| Cn1c(=O)oc2cc(S(=O)(=O)NC(Cc3ccccc3)C(=O)Nc3ccc(F)cc3)ccc21 (stereo not drawn) | – | inactive: 0.0125% |
| CCn1c(C(=O)NCc2ccc(F)cc2)cc2oc3ccccc3c21 | – | inactive: -4.1% |
| CC12CN3CC(c4ccccc4)(CN(C1)C3c1ccc(O)cc1)C2=O (stereo not drawn) | – | inactive: -4.24% |
| COc1ccc2[nH]cc(CCNC(C)=O)c2c1 | – | inactive: -2.53% |
